Measurements as given in the supplement of paper PMC7125110.
± gives the standard error. Variants at the floor of the assay are shown more often than the library holds them.

B1: glmS ribozyme (parent)
chain: AUAAAAGCGCCAGAACUACAGAAAUGUAGUUGACGAGGAGGAGGUUUAUCGAAUUUUCGGCGGAUGCCUCCAAA

How the values were obtained:
Conditions in all cases: with glucosamine-6-phosphate
[1] = variants of: B1; experiment: self-cleavage kobs at 40 uM GlcN6P; higher = faster cleavage; RNA array
Summary of the method: (§1)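 On sequenced MiSeq chips, barcoded ribozyme variants were made in situ by E. coli RNA polymerase and followed at 37 °C through a hybridised Cy3 probe. Glucosamine-6-phosphate was flowed in at 40 μM to 10 mM in HEPES/KCl/Mg(OAc)2 buffer. Exponential fits to normalised per-tile medians gave kobs, and weighted Michaelis–Menten fits gave kcat and KM.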

[2] = variants of: B1; experiment: self-cleavage kobs at 10000 uM GlcN6P; higher = faster cleavage; RNA array
Summary of the method: as §1

[3] = variants of: B1; experiment: self-cleavage kobs at 640 uM GlcN6P; higher = faster cleavage; RNA array
Summary of the method: as §1

[4] = variants of: B1; experiment: self-cleavage kobs at 160 uM GlcN6P; higher = faster cleavage; RNA array
Summary of the method: as §1

[5] = variants of: B1; experiment: self-cleavage kobs at 2500 uM GlcN6P; higher = faster cleavage; RNA array
Summary of the method: as §1

## G41A U55C
[1]
  self-cleavage kobs at 40 uM GlcN6P: < 1e-05 s⁻¹

## G40U G59C G60U C70G
[1]
  self-cleavage kobs at 40 uM GlcN6P: < 1e-05 s⁻¹
[2]
  self-cleavage kobs at 10000 uM GlcN6P: < 1e-05 s⁻¹

## G41A G59A
[1]
  self-cleavage kobs at 40 uM GlcN6P: < 1e-05 s⁻¹

## G38A G43C
[1]
  self-cleavage kobs at 40 uM GlcN6P: < 1e-05 s⁻¹
[3]
  self-cleavage kobs at 640 uM GlcN6P: < 1e-05 s⁻¹
[4]
  self-cleavage kobs at 160 uM GlcN6P: < 1e-05 s⁻¹
[2]
  self-cleavage kobs at 10000 uM GlcN6P: < 1e-05 s⁻¹

## G38A G43U
[1]
  self-cleavage kobs at 40 uM GlcN6P: < 1e-05 s⁻¹
[3]
  self-cleavage kobs at 640 uM GlcN6P: < 1e-05 s⁻¹
[4]
  self-cleavage kobs at 160 uM GlcN6P: < 1e-05 s⁻¹
[2]
  self-cleavage kobs at 10000 uM GlcN6P: < 1e-05 s⁻¹

## G38U G41A G63U
[1]
  self-cleavage kobs at 40 uM GlcN6P: < 1e-05 s⁻¹

## G41A G44U
[1]
  self-cleavage kobs at 40 uM GlcN6P: < 1e-05 s⁻¹
[3]
  self-cleavage kobs at 640 uM GlcN6P: < 1e-05 s⁻¹
[4]
  self-cleavage kobs at 160 uM GlcN6P: < 1e-05 s⁻¹
[2]
  self-cleavage kobs at 10000 uM GlcN6P: < 1e-05 s⁻¹

## G40A C50A
[1]
  self-cleavage kobs at 40 uM GlcN6P: < 1e-05 s⁻¹
[3]
  self-cleavage kobs at 640 uM GlcN6P: < 1e-05 s⁻¹
[4]
  self-cleavage kobs at 160 uM GlcN6P: < 1e-05 s⁻¹
[5]
  self-cleavage kobs at 2500 uM GlcN6P: < 1e-05 s⁻¹

## G40A G59C
[1]
  self-cleavage kobs at 40 uM GlcN6P: < 1e-05 s⁻¹
[2]
  self-cleavage kobs at 10000 uM GlcN6P: < 1e-05 s⁻¹

## G38C A42U
[1]
  self-cleavage kobs at 40 uM GlcN6P: < 1e-05 s⁻¹
[3]
  self-cleavage kobs at 640 uM GlcN6P: < 1e-05 s⁻¹
[4]
  self-cleavage kobs at 160 uM GlcN6P: < 1e-05 s⁻¹
[5]
  self-cleavage kobs at 2500 uM GlcN6P: < 1e-05 s⁻¹

## A39G G43U
[1]
  self-cleavage kobs at 40 uM GlcN6P: < 1e-05 s⁻¹

## G38U C58U
[1]
  self-cleavage kobs at 40 uM GlcN6P: < 1e-05 s⁻¹
[5]
  self-cleavage kobs at 2500 uM GlcN6P: < 1e-05 s⁻¹
[2]
  self-cleavage kobs at 10000 uM GlcN6P: < 1e-05 s⁻¹

## G41C G43U
[1]
  self-cleavage kobs at 40 uM GlcN6P: < 1e-05 s⁻¹

## G40C G43A U47G
[1]
  self-cleavage kobs at 40 uM GlcN6P: < 1e-05 s⁻¹

## A39C A42G
[1]
  self-cleavage kobs at 40 uM GlcN6P: 0.000141 ± 1.4e-05 s⁻¹
[3]
  self-cleavage kobs at 640 uM GlcN6P: 0.00152 ± 0.00029 s⁻¹
[4]
  self-cleavage kobs at 160 uM GlcN6P: 0.000376 ± 7.6e-05 s⁻¹
[5]
  self-cleavage kobs at 2500 uM GlcN6P: 0.00282 ± 0.00046 s⁻¹
[2]
  self-cleavage kobs at 10000 uM GlcN6P: 0.0047 ± 0.00074 s⁻¹

## G41A C71A
[1]
  self-cleavage kobs at 40 uM GlcN6P: 2.7e-05 ± 8.9e-06 s⁻¹
[3]
  self-cleavage kobs at 640 uM GlcN6P: 0.000125 ± 1.7e-05 s⁻¹
[4]
  self-cleavage kobs at 160 uM GlcN6P: 5.23e-05 ± 1.1e-05 s⁻¹
[5]
  self-cleavage kobs at 2500 uM GlcN6P: 0.000308 ± 5.6e-05 s⁻¹
[2]
  self-cleavage kobs at 10000 uM GlcN6P: 0.000248 ± 2.8e-05 s⁻¹

## G40U A48C G59A
[1]
  self-cleavage kobs at 40 uM GlcN6P: < 1e-05 s⁻¹
[2]
  self-cleavage kobs at 10000 uM GlcN6P: < 1e-05 s⁻¹

## G40C G59A U65G
[1]
  self-cleavage kobs at 40 uM GlcN6P: < 1e-05 s⁻¹

## G41C G44U G66U
[1]
  self-cleavage kobs at 40 uM GlcN6P: < 1e-05 s⁻¹

## A39G G40U
[1]
  self-cleavage kobs at 40 uM GlcN6P: 9.64e-05 ± 1.6e-05 s⁻¹
[3]
  self-cleavage kobs at 640 uM GlcN6P: 0.000551 ± 8.8e-05 s⁻¹
[4]
  self-cleavage kobs at 160 uM GlcN6P: 0.000207 ± 4.9e-05 s⁻¹
[5]
  self-cleavage kobs at 2500 uM GlcN6P: 0.0015 ± 0.00022 s⁻¹

## A39C C58U G63U
[1]
  self-cleavage kobs at 40 uM GlcN6P: < 1e-05 s⁻¹
[2]
  self-cleavage kobs at 10000 uM GlcN6P: < 1e-05 s⁻¹

## G38C G63U A64U
[1]
  self-cleavage kobs at 40 uM GlcN6P: < 1e-05 s⁻¹

## G40U C61U C71G
[1]
  self-cleavage kobs at 40 uM GlcN6P: < 1e-05 s⁻¹

## G40U G60U
[1]
  self-cleavage kobs at 40 uM GlcN6P: < 1e-05 s⁻¹
[3]
  self-cleavage kobs at 640 uM GlcN6P: < 1e-05 s⁻¹
[4]
  self-cleavage kobs at 160 uM GlcN6P: < 1e-05 s⁻¹
[5]
  self-cleavage kobs at 2500 uM GlcN6P: < 1e-05 s⁻¹
[2]
  self-cleavage kobs at 10000 uM GlcN6P: < 1e-05 s⁻¹

## G38U G43A
[1]
  self-cleavage kobs at 40 uM GlcN6P: < 1e-05 s⁻¹
[3]
  self-cleavage kobs at 640 uM GlcN6P: < 1e-05 s⁻¹
[4]
  self-cleavage kobs at 160 uM GlcN6P: < 1e-05 s⁻¹
[2]
  self-cleavage kobs at 10000 uM GlcN6P: < 1e-05 s⁻¹

## G38C G41U A53U
[1]
  self-cleavage kobs at 40 uM GlcN6P: < 1e-05 s⁻¹
[5]
  self-cleavage kobs at 2500 uM GlcN6P: < 1e-05 s⁻¹
[2]
  self-cleavage kobs at 10000 uM GlcN6P: < 1e-05 s⁻¹

## G38U U57G C67U C70U
[1]
  self-cleavage kobs at 40 uM GlcN6P: 8e-05 ± 2.6e-05 s⁻¹
[3]
  self-cleavage kobs at 640 uM GlcN6P: 0.000114 ± 4.7e-05 s⁻¹
[5]
  self-cleavage kobs at 2500 uM GlcN6P: 0.0013 ± 0.00059 s⁻¹
[2]
  self-cleavage kobs at 10000 uM GlcN6P: 4.29e-05 ± 1.9e-05 s⁻¹

## G41C U46C G60C
[1]
  self-cleavage kobs at 40 uM GlcN6P: < 1e-05 s⁻¹
[4]
  self-cleavage kobs at 160 uM GlcN6P: < 1e-05 s⁻¹
[2]
  self-cleavage kobs at 10000 uM GlcN6P: < 1e-05 s⁻¹

## A39C G63A
[1]
  self-cleavage kobs at 40 uM GlcN6P: < 1e-05 s⁻¹
[3]
  self-cleavage kobs at 640 uM GlcN6P: < 1e-05 s⁻¹
[4]
  self-cleavage kobs at 160 uM GlcN6P: < 1e-05 s⁻¹
[5]
  self-cleavage kobs at 2500 uM GlcN6P: < 1e-05 s⁻¹
[2]
  self-cleavage kobs at 10000 uM GlcN6P: < 1e-05 s⁻¹

## G40A U49G U65G C67A C71G
[1]
  self-cleavage kobs at 40 uM GlcN6P: < 1e-05 s⁻¹
[2]
  self-cleavage kobs at 10000 uM GlcN6P: < 1e-05 s⁻¹

## A39C A48U A52G
[1]
  self-cleavage kobs at 40 uM GlcN6P: < 1e-05 s⁻¹
[2]
  self-cleavage kobs at 10000 uM GlcN6P: < 1e-05 s⁻¹

## G38C G66A
[1]
  self-cleavage kobs at 40 uM GlcN6P: < 1e-05 s⁻¹
[4]
  self-cleavage kobs at 160 uM GlcN6P: < 1e-05 s⁻¹
[2]
  self-cleavage kobs at 10000 uM GlcN6P: < 1e-05 s⁻¹

## A39C A48U U65G C71A
[1]
  self-cleavage kobs at 40 uM GlcN6P: < 1e-05 s⁻¹

## G40C C71A
[1]
  self-cleavage kobs at 40 uM GlcN6P: 0.000225 ± 3.8e-05 s⁻¹
[3]
  self-cleavage kobs at 640 uM GlcN6P: 0.00213 ± 0.00024 s⁻¹
[4]
  self-cleavage kobs at 160 uM GlcN6P: 0.000451 ± 6.2e-05 s⁻¹
[2]
  self-cleavage kobs at 10000 uM GlcN6P: 0.00527 ± 0.00096 s⁻¹

## G38U U49C
[1]
  self-cleavage kobs at 40 uM GlcN6P: < 1e-05 s⁻¹
[3]
  self-cleavage kobs at 640 uM GlcN6P: < 1e-05 s⁻¹
[4]
  self-cleavage kobs at 160 uM GlcN6P: < 1e-05 s⁻¹
[5]
  self-cleavage kobs at 2500 uM GlcN6P: < 1e-05 s⁻¹

## G40A A42G A52C A53C
[1]
  self-cleavage kobs at 40 uM GlcN6P: < 1e-05 s⁻¹
[3]
  self-cleavage kobs at 640 uM GlcN6P: < 1e-05 s⁻¹
[5]
  self-cleavage kobs at 2500 uM GlcN6P: < 1e-05 s⁻¹

## A39G G59U
[1]
  self-cleavage kobs at 40 uM GlcN6P: < 1e-05 s⁻¹
[4]
  self-cleavage kobs at 160 uM GlcN6P: < 1e-05 s⁻¹
[2]
  self-cleavage kobs at 10000 uM GlcN6P: 5.72e-05 ± 9.8e-06 s⁻¹

## G40A U46G G60C C67A C70U
[1]
  self-cleavage kobs at 40 uM GlcN6P: < 1e-05 s⁻¹
[2]
  self-cleavage kobs at 10000 uM GlcN6P: < 1e-05 s⁻¹

## G40U G43C
[1]
  self-cleavage kobs at 40 uM GlcN6P: < 1e-05 s⁻¹
[3]
  self-cleavage kobs at 640 uM GlcN6P: < 1e-05 s⁻¹
[4]
  self-cleavage kobs at 160 uM GlcN6P: < 1e-05 s⁻¹

## G40U U45A C50A C67A
[1]
  self-cleavage kobs at 40 uM GlcN6P: < 1e-05 s⁻¹
[3]
  self-cleavage kobs at 640 uM GlcN6P: < 1e-05 s⁻¹

## G38A G40A
[1]
  self-cleavage kobs at 40 uM GlcN6P: < 1e-05 s⁻¹
[3]
  self-cleavage kobs at 640 uM GlcN6P: < 1e-05 s⁻¹
[4]
  self-cleavage kobs at 160 uM GlcN6P: < 1e-05 s⁻¹
[5]
  self-cleavage kobs at 2500 uM GlcN6P: < 1e-05 s⁻¹
[2]
  self-cleavage kobs at 10000 uM GlcN6P: < 1e-05 s⁻¹

## G41C C61U U69C
[1]
  self-cleavage kobs at 40 uM GlcN6P: < 1e-05 s⁻¹
[3]
  self-cleavage kobs at 640 uM GlcN6P: < 1e-05 s⁻¹
[4]
  self-cleavage kobs at 160 uM GlcN6P: < 1e-05 s⁻¹
[5]
  self-cleavage kobs at 2500 uM GlcN6P: < 1e-05 s⁻¹
[2]
  self-cleavage kobs at 10000 uM GlcN6P: < 1e-05 s⁻¹

## G40C G60U U69C
[1]
  self-cleavage kobs at 40 uM GlcN6P: < 1e-05 s⁻¹
[5]
  self-cleavage kobs at 2500 uM GlcN6P: < 1e-05 s⁻¹
[2]
  self-cleavage kobs at 10000 uM GlcN6P: < 1e-05 s⁻¹

## A39G U47A
[1]
  self-cleavage kobs at 40 uM GlcN6P: 0.00119 ± 0.00019 s⁻¹

## A39U A53U
[1]
  self-cleavage kobs at 40 uM GlcN6P: 0.000461 ± 5e-05 s⁻¹
[3]
  self-cleavage kobs at 640 uM GlcN6P: 0.00368 ± 0.00054 s⁻¹
[4]
  self-cleavage kobs at 160 uM GlcN6P: 0.000985 ± 0.00016 s⁻¹
[5]
  self-cleavage kobs at 2500 uM GlcN6P: 0.00619 ± 0.001 s⁻¹
[2]
  self-cleavage kobs at 10000 uM GlcN6P: 0.0126 ± 0.0017 s⁻¹
